Data as given in paper PMC12040169 (PLOS Biology, 2025).
The list shows a part of the results.

Tested on: T1, C. trachomatis L2/434/Bu expressing GFP (CTL2-GFP)
T1 construct: L2/434/Bu GFP intracellular growth in HeLa cells
Set-up: species or system HeLa; C. trachomatis total inclusion area by high-content imaging, normalised to DMSO
Settings: total inclusion area; 28.5 h, 10 µM; inhibitor
Method in brief: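 After bulk GFP and resorufin fluorescence reads, cells were fixed, stained with Hoechst and imaged by high-content microscopy. Inclusion area and number (GFP) stood in for chlamydial growth, nuclei count (Hoechst) for host cell viability. MICs were derived as for the bulk readout.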

| SMILES | % of control remaining |
| --- | --- |
| CCCn1c(SCC(=O)NCCN2C(=O)CSC2=O)n[nH]c1=O [CBK296976] | 117.248 |
| Cc1nc(OCC(=O)O)c(C#N)c2c1COC(C)(C)C2 [CBK286810] | 71.7251 |
| CCc1cc(C(=O)Nc2nn(C)c3cccc(N4CCOCC4)c23)cs1 [CBK307419] | 59.6038 |
| N#CC(C(=O)CN1CCN(Cc2ccccc2)CC1)c1ccccc1 (stereo not drawn) [CBK269386] | 102.166 |
| CC(NC(=O)CSc1nnc(-c2ccc(Cl)cc2)n1-c1ccccc1)c1ccccc1 (stereo not drawn) [CBK264993] | 109.437 |
| Cc1cc(C)cc(NC(=O)CSc2ncnc3c2oc2ccccc23)c1 [CBK287394] | 124.82 |
| CCOC(=O)c1c(NC(=S)NC(=O)c2cccc(Cl)c2)sc2c1CCCC2 [CBK264045] | 103.173 |
| Cc1cc(=O)oc2cc(NC(=S)NNC(=O)C3CCN(Cc4ccc(F)cc4Cl)CC3)ccc12 [CBK266953] | 122.425 |
| Cc1nc2ccc(C(=O)NCC3CCCN(C(C)C)C3)cc2[nH]1 (stereo not drawn) [CBK282475] | 123.301 |
| c1ccc(COc2ccccc2-c2cc(NCCc3ccccn3)ncn2)cc1 [CBK037826] | 100.162 |
| C=CCn1cc(CN2CCc3c(nc(C)[nH]c3=O)C2)c2ccccc21 [CBK283992] | 96.0494 |
| O=C(CCCn1cccn1)N1CCOC(c2ccc(Cl)c(Cl)c2)C1 (stereo not drawn) [CBK304640] | 100.252 |
| Cc1ccc(-c2csc3ncn(Cc4ccccc4C)c(=O)c23)cc1C [CBK099921] | 87.7575 |
| O=C(NCCCNC(=O)c1ccccn1)c1ccc(Cl)cc1 [CBK269193] | 118.196 |
| CCC(NC(=O)C1(Cn2ccnc2)CC1)c1ncccc1C (stereo not drawn) [CBK307046] | 42.8989 |
| CCn1cncc1CN1CC2CCCC(O)(c3ccc(F)cc3)C2C1 (stereo not drawn) [CBK282119] | 116.996 |
| Cc1ccccc1Sc1ncccc1C(F)(F)F [CBK115231] | 88.2561 |
| CN1CCCN(c2nccnc2-c2cccc(O)c2)CC1 [CBK088820] | 68.4775 |
| COc1ccc(NC(=S)N2CCN(C/C=C/c3ccccc3)CC2)cc1OC [CBK266891] | 102.573 |
| CCN(CC)C(=O)c1ccc2[nH]ccc2c1 [CBK149072] | 97.3909 |
| C[C@@H](Nc1cncc(-c2cccs2)n1)c1ccccc1 [CBK065711] | 63.1631 |
| CC(C)(CN(Cc1ccccc1)C(=O)/C=C/c1ccccc1)NC(=O)OC(C)(C)C [CBK003266] | 33.5279 |
| Oc1cc2cccnc2nc1-c1cccc(C(F)(F)F)c1 [CBK073704] | 74.4847 |
| CC(C)C[C@@H]1NC(=O)C2(C/C=C/C[C@@H]3COCC[C@@H]3NC1=O)CCN(C(=O)[C@H](CO)NC(=O)OCc1ccccc1)CC2 [CBK292191] | 107.682 |
| CCOc1cccc(NC(=O)/C(C#N)=C\c2cc(OC)c(O)cc2Br)c1 [CBK263189] | 118.88 |
| OC(COc1ccc(Br)cc1)CN1CCCN(c2nc3ccc(Cl)cc3s2)CC1 (stereo not drawn) [CBK074643] | 11.0645 |

| SMILES | % of control remaining |
| --- | --- |
| c1cncc(C2N3CCC4(CC3)c3[nH]c5ccccc5c3CCN24)c1 (stereo not drawn) [CBK284430] | 65.4979 |
| COc1ccc(C2=NN(c3ccc([N+](=O)[O-])cc3)C(=O)/C2=C/NCc2ccccn2)cc1 [CBK265276] | 119.015 |
| Cc1ccc(CNC(=O)OCc2cccnc2C)o1 [CBK200131] | 44.3351 |
| Cc1cc(Cl)ccc1NC(=S)NCCc1ccc(S(N)(=O)=O)cc1 [CBK264888] | 100.532 |
| O=S(=O)(Nc1cc(NC2CCNC2)c2occc2c1)c1ccccc1 (stereo not drawn) [CBK066943C] | 72.9808 |
| CC(C)(O)C#Cc1ccc(C(=O)N2CCN(Cc3ccccc3)CC2)cc1 [CBK263100] | 91.3255 |
| C/C(=N\N=C1\N=C(O)C(CC(=O)NCc2ccccc2)S1)c1ccco1 (stereo not drawn) [CBK263698] | 94.9993 |
| CCOc1ccsc1C(=O)N1CCN(CC)CC1 [CBK200250] | 109.876 |
| COc1cc(/C=N/c2ccc3oc(-c4cccc(I)c4)nc3c2)ccc1OC(=O)c1ccc(Cl)cc1Cl [CBK261239] | 99.0341 |
| Cc1nc2ccc(C(=O)NC(c3ccccc3)c3cccnc3)cc2[nH]1 (stereo not drawn) [CBK283259] | 88.2007 |
| Cc1cccc(OCCn2cncc2-c2cn(C)nc2C)c1C [CBK281458] | 71.6699 |
| Cc1ccc(S(=O)(=O)CCOc2nc3c(C(F)(F)F)cc(C4CC4)nc3o2)cc1 [CBK269267] | 94.6735 |
| CCOc1ccc(-c2cnc(SCC(=O)O)nc2N)cc1 [CBK269928] | 91.2789 |
| O=C(CN1C(=O)S/C(=C\c2ccc(OCc3ccccc3)cc2)C1=O)c1ccccc1 [CBK264636] | 99.2566 |
| COc1ccc(C2(NCc3c(C)nc4sccn34)CC2)cc1 [CBK282835] | 78.9122 |
| OC(CN1CCN(Cc2ccc3c(c2)OCO3)CC1)c1ccccc1 (stereo not drawn) [CBK074759] | 101.563 |
| CN1CCC(N(C)C2CCN(Cc3ccccc3)CC2)CC1 [CBK261925] | 64.9472 |
| COc1cccc(C(NC(=O)C2COc3c(cccc3OC)C2)c2ccccc2)c1 (stereo not drawn) [CBK285736] | 105.693 |
| CCN(CC(=O)Nc1c(F)cccc1F)S(=O)(=O)c1cccc(C#N)c1 [CBK306197] | 43.1859 |
| O=C(CSc1nc(Nc2ccccc2)nc(N2CCOCC2)n1)Nc1ccc2c(c1)OCO2 [CBK268320] | 113.05 |
| CN(C)CCNc1nc(-c2cncnc2)cnc1N [CBK063661] | 103.174 |
| CC(C)(C)c1[nH]c2ncccc2c1CN1CCCC(CO)C1 (stereo not drawn) [CBK285342] | 100.407 |
| CN(CC(=O)O/N=C(\N)c1cccnc1)S(=O)(=O)c1ccccc1 [CBK267684] | 105.443 |
| CC(C)NC(=O)c1cc([C@H]2CC[C@H](CNC(=O)Cn3cccn3)CC2)nc2ccccc12 [CBK285859] | 95.4105 |
| Cc1ccc(Cl)cc1NC(=O)c1cnc2scc(C)n2c1=O [CBK287464] | 51.1265 |
